Reference: the supplement of paper PMC4967469
By IC50 is meant the dose at which the fit gives 50% viability; a limit (>, <) means that the fit lies beyond the doses tested. AUC sums up the same curve from the lowest dose to the 256-fold higher top dose; values near 1 show little effect. For some assays here: The top dose, if marked as inferred, comes from the curve model; the source does not state it.

What was measured:
Assay in all cases: Viability of human cancer cell lines after 72 h of drug (GDSC screen)
[1] = compound: C=CC(=O)Nc1cc(NC(=O)c2ccc(C)c(NC(=O)c3ccno3)c2)cc(C(F)(F)F)c1 [QL-XI-92]; details: top dose 10.24 µM; top dose inferred
Method: (§1)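 Human cancer cell lines in 384-well plates, medium with 10% serum, drug for 72 h over a 256-fold dose range (nine 2-fold or five 4-fold steps up to the top dose). Adherent lines were fixed and stained with the nucleic acid dye Syto60, suspension lines read with resazurin; signal relative to control wells, capped at 0 and 100%. One two-parameter sigmoid per drug and line, fitted in a mixed model over all curves with the slope shared within a line.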

[2] = compound: N=C(N)NC(=N)NCCc1ccccc1 [Phenformin]; details: top dose 4000 µM; top dose inferred
Method: as §1

[3] = compound: CCC1=C[C@@H]2CN(C1)Cc1c([nH]c3ccccc13)[C@@](C(=O)OC)(c1cc3c(cc1OC)N(C)[C@H]1[C@@](O)(C(=O)OC)[C@H](OC(C)=O)[C@]4(CC)C=CCN5CC[C@]31[C@@H]54)C2 [Vinorelbine]; details: top dose 0.064 µM; top dose inferred
Method: as §1

[4] = compound: N[C@@H](CSC(c1ccccc1)(c1ccccc1)c1ccccc1)C(=O)O [S-Trityl-L-cysteine]; details: top dose 5.12 µM; top dose inferred
Method: as §1

[5] = compound: COc1cc2ncnc(Nc3cc(Br)c(O)c(Br)c3)c2cc1OC [WHI-P97]; details: top dose 10.24 µM; top dose inferred
Method: as §1

[6] = compound: O=c1cc(N2CCOCC2)oc2c(-c3cccc4c3sc3ccccc34)cccc12 [NU-7441]; details: top dose 2 µM; top dose inferred
Method: as §1

[7] = compound: CNCc1ccc(-c2[nH]c3cc(F)cc4c3c2CCNC4=O)cc1 [AG-014699]; details: top dose 5 µM; top dose inferred
Method: as §1

[8] = compound: O=c1cc(CN2CCOCC2)occ1OCCCCCSc1ccnc2cc(C(F)(F)F)ccc12 [EHT 1864]; details: top dose 10 µM; top dose inferred
Method: as §1

[9] = compound: COc1cc2nccc(Oc3ccc(NC(=O)C4(C(=O)Nc5ccc(F)cc5)CC4)cc3)c2cc1OC [XL-184]; details: top dose 5.12 µM; top dose inferred
Method: as §1

[10] = compound: COc1cc2ncnc(Nc3ccc(F)c(Cl)c3)c2cc1OCCCN1CCOCC1 [Gefitinib]; details: top dose 0.5 µM
Method: as §1

Cell Line	AUC [1]	IC50 [1] [µM]	AUC [2]	IC50 [2] [µM]	AUC [3]	IC50 [3] [nM]	AUC [4]	AUC [5]	IC50 [5] [µM]	AUC [6]	IC50 [6] [nM]	AUC [7]	IC50 [7] [µM]	AUC [8]	IC50 [8] [µM]	AUC [9]	IC50 [9] [µM]	IC50 [4] [µM]	AUC [10]	IC50 [10] [nM]
A101D (melanoma, adherent)	0.98	> 10.2	0.542	333	0.626	9.65	0.732	0.962	> 10.2	0.833	1720	0.979	> 5	0.974	> 10	0.895	> 5.12	–	–	–
A498 (kidney, adherent)	0.965	> 10.2	0.936	> 4000	0.682	16.8	0.945	0.972	> 10.2	0.976	> 2000	0.971	> 5	0.939	> 10	0.973	> 5.12	> 5.12	–	–
BT-474 (breast, adherent)	0.949	> 10.2	0.606	507	0.801	35.8	0.936	0.977	> 10.2	0.985	> 2000	0.937	> 5	0.89	> 10	0.935	> 5.12	> 5.12	–	–
DEL (lymphoid neoplasm, suspension)	0.842	5.06	0.684	721	0.435	2.77	0.693	0.963	> 10.2	0.994	> 2000	0.993	> 5	0.992	> 10	0.987	> 5.12	0.973	–	–
ES3 (Ewing sarcoma, adherent)	0.93	> 10.2	0.842	3040	0.721	17.6	0.966	0.946	> 10.2	0.975	> 2000	–	–	0.947	> 10	0.956	> 5.12	> 5.12	–	–
GAK (melanoma, adherent)	0.987	> 10.2	0.84	2570	0.85	45.1	0.859	0.988	> 10.2	0.977	> 2000	0.982	> 5	–	–	0.98	> 5.12	3.93	–	–
H-EMC-SS (chondrosarcoma, adherent)	0.933	> 10.2	0.959	> 4000	0.93	> 64	0.957	0.955	> 10.2	0.981	> 2000	0.973	> 5	0.924	> 10	0.677	1.16	> 5.12	–	–
HH (T-cell leukaemia, suspension)	0.849	> 10.2	0.45	174	0.564	6.33	0.791	0.968	> 10.2	0.828	1840	0.965	> 5	0.921	> 10	0.921	> 5.12	3.2	–	–
HT-144 (melanoma, adherent)	0.98	> 10.2	0.69	911	0.276	0.853	0.514	0.977	> 10.2	0.938	> 2000	0.954	> 5	0.931	> 10	0.954	> 5.12	0.35	–	–
JAR (urogenital system, adherent)	0.926	> 10.2	0.862	3290	0.89	> 64	0.619	0.969	> 10.2	0.982	> 2000	0.974	> 5	0.904	> 10	0.984	> 5.12	0.676	–	–
KASUMI-1 (acute myeloid leukaemia, suspension)	0.616	1.34	–	–	0.717	16.5	0.973	–	–	–	–	0.959	> 5	0.934	> 10	–	–	> 5.12	0.944	> 500
KG-1 (acute myeloid leukaemia, suspension)	0.846	6.31	0.433	168	0.936	> 64	0.99	0.935	> 10.2	0.987	> 2000	0.982	> 5	0.958	> 10	0.831	2.79	> 5.12	–	–
LC-2-ad (lung adenocarcinoma, adherent)	0.959	> 10.2	0.668	745	0.362	1.65	0.605	0.894	> 10.2	0.985	> 2000	0.975	> 5	0.982	> 10	0.809	2.75	0.625	–	–
LNCaP-Clone-FGC (prostate, adherent)	0.896	> 10.2	0.745	1410	0.743	22.2	0.98	0.961	> 10.2	0.95	> 2000	0.959	> 5	0.914	> 10	0.908	> 5.12	> 5.12	–	–
MV-4-11 (leukaemia, suspension)	0.843	5.45	0.146	27	0.611	7.6	0.561	0.859	6.18	0.844	1070	0.919	> 5	0.9	8.73	–	–	0.456	–	–
